Laboratory results: FireProtDB (doi:10.1021/bi00197a037)

Settings: Homo sapiens, Thermal, DSC, glycine-HCl 10 mM, reversible: yes

Interleukin-1 beta wild type (sequence not shown)
Tm (pH 2): 37 °C | heat capacity change of unfolding (pH 2): 1.89 kcal/mol/K | unfolding enthalpy (calorimetric) (pH 2): 54.3 kcal/mol | unfolding enthalpy (van 't Hoff) (pH 2): 57.9 kcal/mol | Tm (pH 2.2): 41 °C | heat capacity change of unfolding (pH 2.2): 1.89 kcal/mol/K | unfolding enthalpy (calorimetric) (pH 2.2): 63.6 kcal/mol | unfolding enthalpy (van 't Hoff) (pH 2.2): 66.3 kcal/mol | Tm (pH 2.38): 44 °C | heat capacity change of unfolding (pH 2.38): 1.89 kcal/mol/K | unfolding enthalpy (calorimetric) (pH 2.38): 59.1 kcal/mol | unfolding enthalpy (van 't Hoff) (pH 2.38): 56.2 kcal/mol | Tm (pH 2.5): 49 °C | heat capacity change of unfolding (pH 2.5): 1.89 kcal/mol/K | unfolding enthalpy (calorimetric) (pH 2.5): 78.9 kcal/mol | unfolding enthalpy (van 't Hoff) (pH 2.5): 78.2 kcal/mol | Tm (pH 3): 53 °C | heat capacity change of unfolding (pH 3): 1.89 kcal/mol/K | unfolding enthalpy (calorimetric) (pH 3): 84 kcal/mol | unfolding enthalpy (van 't Hoff) (pH 3): 88.3 kcal/mol
